Laboratory results reported in a compilation of properties of binary mixtures (doi:10.1021/jp502400z).
The densities may have been worked out from excess volumes.

Assay: xn = mol fraction of the nth substance listed
Conditions: 298.15 K, 101 kPa

C[NH+](C)C.O=S(=O)([O-])O + O
Conditions | mass density [kg/m3]
x2 = 0 | 1467.6
x2 = 0.1369 | 1457
x2 = 0.1942 | 1451.6
x2 = 0.2919 | 1440.6
x2 = 0.3723 | 1429.4
x2 = 0.4691 | 1412.2
x2 = 0.5219 | 1400.5
x2 = 0.6073 | 1376.8
x2 = 0.6734 | 1352.9
x2 = 0.7012 | 1340.9
x2 = 0.7878 | 1292.7
x2 = 0.8724 | 1220.1
x2 = 0.9027 | 1184.4
x2 = 0.9352 | 1137.1

CC[NH+](CC)CC.O=S(=O)([O-])O + O
Conditions | mass density [kg/m3]
x2 = 0 | 1142.9
x2 = 0.1228 | 1141.2
x2 = 0.2209 | 1139.5
x2 = 0.3679 | 1136.1
x2 = 0.4728 | 1132.6
x2 = 0.5147 | 1130.8
x2 = 0.6613 | 1121.5
x2 = 0.7011 | 1117.7
x2 = 0.7866 | 1106.2
x2 = 0.8075 | 1102.3
x2 = 0.869 | 1086.9
x2 = 0.9091 | 1071.8
x2 = 0.9432 | 1053
x2 = 0.9627 | 1038.5
x2 = 0.9743 | 1027.5

CC(=O)[O-].C[NH+](C)C + O
Conditions | mass density [kg/m3]
x1 = 0.0451 | 1011.9
x1 = 0.0651 | 1017
x1 = 0.0978 | 1023.7
x1 = 0.1283 | 1028.3
x1 = 0.1524 | 1031.5
x1 = 0.2133 | 1037.4
x1 = 0.3002 | 1043
x1 = 0.328 | 1044.2
x1 = 0.3943 | 1046.7
x1 = 0.4341 | 1047.8
x1 = 0.4797 | 1048.9
x1 = 0.5325 | 1049.8
x1 = 0.6292 | 1051.2
x1 = 0.7094 | 1051.9
x1 = 0.7556 | 1052.3
x1 = 0.9278 | 1053.4
x1 = 1 | 1053.8

CC[NH2+]CC.O=S(=O)([O-])O + O
Conditions | mass density [kg/m3]
x2 = 0.1212 | 1279.7
x2 = 0.2183 | 1275.9
x2 = 0.2979 | 1272.3
x2 = 0.3644 | 1268.9
x2 = 0.4207 | 1265.3
x2 = 0.5476 | 1253.6
x2 = 0.6578 | 1237.1
x2 = 0.6979 | 1228.8
x2 = 0.7314 | 1220.3
x2 = 0.7841 | 1203.1
x2 = 0.8051 | 1194.5
x2 = 0.8673 | 1161.3
x2 = 0.9079 | 1130
x2 = 0.9233 | 1115.2
x2 = 0.9424 | 1093.9
x2 = 0.9622 | 1066.9
x2 = 0.9741 | 1048.2
